Assay results taken from PubChem BioAssay AID1030 (National Center for Advancing Translational Sciences (NCATS), 2008).
In all, about 220,000 compounds went through this assay and about 16,000 (7.3%) were called active. Inconclusive results, whose numbers are uncertain, are shown with a selection of clear calls. The call rests on the fitted dose curve; in most records, active means well fitted inhibition curve with a large enough effect (not every such curve was filed as active); inconclusive means small, poorly fitted or top-dose-only effect, or another doubt; inactive means no such curve, though single readings can be large or run the other way. Potencies of inconclusive entries are left out as doubtful fits.

Biological target: Aldehyde dehydrogenase 1A1 (Homo sapiens) (UniProt P00352)
UniProt P00352, sequence (P00352 whole entry, looked up): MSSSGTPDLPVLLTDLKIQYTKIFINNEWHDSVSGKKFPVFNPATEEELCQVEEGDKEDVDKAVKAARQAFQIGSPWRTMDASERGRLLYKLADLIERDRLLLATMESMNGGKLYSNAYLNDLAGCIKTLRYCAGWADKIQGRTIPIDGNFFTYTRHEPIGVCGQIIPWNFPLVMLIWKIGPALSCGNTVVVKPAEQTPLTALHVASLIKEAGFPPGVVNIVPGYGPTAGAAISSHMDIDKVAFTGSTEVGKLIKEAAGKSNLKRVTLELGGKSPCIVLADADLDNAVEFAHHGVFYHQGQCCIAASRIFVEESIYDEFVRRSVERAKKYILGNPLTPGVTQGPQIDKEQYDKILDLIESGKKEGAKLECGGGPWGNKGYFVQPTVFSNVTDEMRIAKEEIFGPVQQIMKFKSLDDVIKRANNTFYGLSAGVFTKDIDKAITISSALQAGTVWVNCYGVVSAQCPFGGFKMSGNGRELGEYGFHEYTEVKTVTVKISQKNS
Assay: qHTS Assay for Inhibitors of Aldehyde Dehydrogenase 1 (ALDH1A1)
Settings: Purified ALDH1A1, NADH fluorescence, propionaldehyde substrate; series mostly up to 75.3 µM
Potency means the concentration at half of the fitted maximal effect; tags describe the fitted curve by direction and shape.

Structure (SMILES)	Potency
CCCCCCCCCCCCCCC[C@@H](O)[C@H](CO)NC(=O)CCCCCCC	inactive
CCOc1cccc(C(=O)Nc2cc(-c3nn4c(C)nnc4s3)ccc2C)c1	inactive
C#CCOc1nc(Nc2cccc([N+](=O)[O-])c2)nc(OCC#C)n1	inconclusive [inhibitor, partial curve]
Cc1nc(=S)c2ccccc2[nH]1	active: 7.08 µM
O=C1C(=O)N(CCCN2CCOCC2)C(c2cccs2)/C1=C(/O)c1ccc2c(c1)OCO2 (stereo not drawn)	inactive
CCc1noc(C)c1C(=O)Nc1nc(-c2ccc(Cl)cc2Cl)c(C)s1	inactive
CCc1c(C)[nH]c2ccc(OC)cc2c1=S	inconclusive [inhibitor, partial curve]
COc1cc(C(=O)N2CCCc3ccccc32)cc(OC)c1OC	inactive
CN(Cc1ccon1)C(=O)CC1C(=O)NCCN1CC1CCCCC1 (stereo not drawn)	inactive
Cc1ccc(/C=N/NC(=O)NC2CCCCC2)o1	active: 3.55 µM
CCOC(=O)C1(CCc2ccccc2)CCN(Cc2cnc(N(C)C)s2)CC1	inconclusive [inhibitor, single point]
COc1ccccc1NC(=S)c1ccccc1	active: 28.2 µM
COc1ccc(CC(=O)NCc2nnc(SCC(=O)c3ccc(OC)cc3)n2C)cc1	inactive
CCO/C=C1/C(=O)N(Cc2ccccc2)C(=O)c2ccccc21	inconclusive [inhibitor, partial curve]
O=C(NCc1ccc(F)cc1)C1CCN(C(=O)NCc2ccccc2)CC1	inactive
COc1ccc(-n2c3c(cc(C(=O)NCc4ccco4)c2=O)C(=O)CC(C)(C)C3)cc1	inconclusive [inhibitor, partial curve]
COc1ccc2c(COC(=O)CCS(=O)(=O)c3ccccc3)cc(=O)oc2c1	inconclusive [inhibitor, partial curve]
O=C(NCCCN1CCCC1=O)c1nnc(Cc2c(F)cccc2Cl)o1	inconclusive [inhibitor, single point]
CC(=O)Nc1ccc(S(=O)(=O)N(C2=NCC(C)S2)c2ccccc2)cc1 (stereo not drawn)	active: 12.6 µM
C=CCOC(=O)C1=C[C@@H](C2CCCCC2)C[C@@H](OCc2ccc(CO)cc2)O1	active: 1 µM
CC(C)C(C(=O)O)N1C(=O)/C(=C/C=C/c2ccco2)SC1=S (stereo not drawn)	inconclusive [inhibitor, partial curve, poor fit]
COc1ccc(CCNC(=O)CN(C)S(=O)(=O)c2ccc(Br)s2)cc1OC	inactive
OCc1cn(-c2ccccc2)nc1-c1cccnc1	inactive
